# ± gives the standard deviation of the averaged measurements. This is one part of the list.
# Test system: PfAP2-I AP2 domain 3 (GST-tagged)
# Experiment: gcPBM binding intensity (ln(normalized median fluorescence intensity)); higher = stronger DNA binding
# Outline: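 Alexa488 anti-GST antibody, scanned at 488 nm, detected GST-tagged P. falciparum DNA-binding domains that had been expressed in E. coli and incubated for 1 h on an Agilent 4 × 180k array. The array carried primer-extended double-stranded 36-bp intergenic genomic probes and negative controls. Binding intensity is the highest Masliner-normalised natural-log median intensity across replicate spots of either orientation of each probe.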
row,Sequence,gcPBM binding intensity (ln)
1,AATATCAAAAAAAAAAAAAAAAAAAAAAAAAAAAAA [CACACA_negctrl_site288],8.32 ± 0.96
2,ATGATAATTATTAAGGGTACATAAAAATATATCTAT [XGTACX_site8969],7.78 ± 0.48
3,ATTATTTAACATGTGGACACAAAAATTTAAGGGTTC [CACACA_negctrl_site1269],8.11 ± 0.48
4,TATAATTATTTTTTCACACATATGTATTTATATATA [CACACA_site4205],7.99 ± 0.43
5,AGATATATATATAGGTGTACTGGAATGAAATTGTTT [XGTACX_site8200],8.06 ± 0.64
6,ATACATATACACATTTGTACATATTCCTTTTTATCG [XGTACX_site1731],8.13 ± 0.35
7,TTATTTAAAATGAAAAGTACATATTACTTTCTCACA [XGTACX_site5043],7.71 ± 0.37
8,TCTTGTTTTAATTTTTATATTATTATTTAGATATAT [CACACA_negctrl_site921],7.71 ± 0.73
9,TACTAAATGATCATATGTACACATGTTTACTTTTTA [XGTACX_site1253],7.72 ± 0.4
10,AATATATATATATATATATATATTTCAATATATAAA [XGTACX_negctrl_site187],8.23 ± 0.3
11,TTAATATATAATAAATTTTTTTTTTTTTTTTTTTTT [CACACA_negctrl_site892],9.345 ± 0.092
12,ATATATTAATATGTGTGTACTTAACCATTCATATGT [XGTACX_site7395],7.76 ± 0.62
13,TTAATATGAAAACTCTGTACCCAACCTTCTTATGGA [XGTACX_site2126],7.54 ± 0.55
14,TATATAAATATATAATGTACGTTTTAAAAATAATAT [XGTACX_site3881],7.96 ± 0.37
15,CTTGGTAGTTTTTTCTTATAATCTAATTATTAATAA [CACACA_negctrl_site153],7.78 ± 0.52
16,TTAACCACTAAAAGTACACACATATATACCTATATA [CACACA_site6026],8.06 ± 0.32
17,TTTTAATAATATGGATGTACATAAAAATAAATAAAT [XGTACX_site7937],8.21 ± 0.42
18,ATATAATAAATGTAGGTGCATAAAAATATTTTGTTA [GTGCAC_site9780],11 ± 0.45
19,TAGTATTATTTTTTTTGTACATATAAATGTAAAATA [XGTACX_site5282],7.72 ± 0.34
20,AAAACATAAATACATACACACATAATATATATTAAG [CACACA_site4239],7.66 ± 0.65
21,TTTTTTTAAAATATGAGTACATAATATTGTAAAAAT [XGTACX_site6536],7.78 ± 0.51
22,AAAGGATATATCCAGAGTACATATTCTGTGTAATAC [XGTACX_site1547],7.66 ± 0.53

row,Sequence,gcPBM binding intensity (ln)
1,ATAATTGTTTCTTTCTCCTTTTTATTTCATTTTAAA [CACACA_negctrl_site964],7.93 ± 0.59
2,CACAAAAAAAATTATACACACACACCCATATATATA [CACACA_site8255],8.37 ± 0.68
3,TATTCATCACTTTTTTGTACTTATGGATAAAATTTT [XGTACX_site3349],7.92 ± 0.45
4,TGTCTTATTTATATTACACACTATATGAAAAAATAT [CACACA_site6807],8.02 ± 0.46
5,GAAAAAGATGCGCATACACACAGATGAATAACAAAA [CACACA_site1628],8.03 ± 0.95
6,ATATATATATATATATGTACATAATTAATAGCATAT [XGTACX_site1428],9.2 ± 0.59
7,TATATAATAAGAAAATATGTGCGTAGTTCAGCAAAA [XGTACX_negctrl_site304],8.26 ± 0.74
8,AAAATAAGAAAACAAATGCACACCATTTATATAGAT [CACACA_site1055],9.23 ± 0.042
9,GAAAAATATATTCTGGTGCATGAATAAAATCATAAA,9.47 ± 0.19
10,AATTGGATAAACCAATTGGATTATAATACGATATAT [CACACA_negctrl_site275],7.46 ± 0.61
11,ATATACAATACAAAAACACACACAAAAAAAGAAAAG [CACACA_site8668],7.81 ± 0.38
12,ATAGTATCTGGTAGCTGTACGAGTCGTAGAGTCTAA [XGTACX_site2539],7.62 ± 0.52
13,ATGTATATTTTTAAAAGTACAGAATTTTCATATGAA [XGTACX_site5754],7.76 ± 0.35
14,TATTTATTTATGTACGCACACAGTTGATATTAATTC [CACACA_site2754],8.37 ± 0.3
15,GTGTAATATGAAATGTGTACACACGCACACACAAAA [XGTACX_site6180],8.32 ± 0.65
16,TAAAATATTTTTTGTAGTACCTTAATATTTTTGAAG [XGTACX_site3048],7.71 ± 0.29
17,TAAATATAATCTAAATGTACATGACATAATTTTTTT [XGTACX_site2856],7.39 ± 0.54
18,TTTCAAAAATGAGTTACACACACACCGATATATATA [CACACA_site5263],8.1 ± 0.7
19,AATAAATACTAAATGGTGCAAAATTTTTTAACACTG,10.8 ± 0.42
20,TATATATATTATAGATGTACTTTCATATATATGTTT [XGTACX_site8189],8.04 ± 0.48
21,AGCCACCATATTTACACACACATCAAAATGTATTAA [CACACA_site1816],8.21 ± 0.47
22,TCAATTAGACGAAAATGTACATATGTATATATTTTT [XGTACX_site5027],7.51 ± 0.57

row,Sequence,gcPBM binding intensity (ln)
1,GATATATTTTATATATGTACATACAAGGGTAAATAT [XGTACX_site1202],8.18 ± 0.42
2,AAAATAAACTATAGTACACACTTATTATTATGAAAT [CACACA_site5488],7.92 ± 0.3
3,AAAATATGTAGCTACACACACATAAACAAAATAACA [CACACA_site1007],7.86 ± 0.63
4,ATTTTATAAAGGAAGTGTACTAATAAATTCAAATTA [XGTACX_site3922],7.92 ± 0.4
5,AAAAAAGAATTGTGCACACACAAAAAATGTTCATAA [CACACA_site1103],10.4 ± 0.3
6,TCGATGTTGGTAGGATGTACGGTACCGGTAGTATTT [XGTACX_site4214],7.86 ± 0.68
7,AAGAAAAAATATACTTCACACATTTAATATATAATT [CACACA_site4919],7.72 ± 0.42
8,AAAAAAAAAAAAAAATGTACAAATATATACATATAT [XGTACX_site935],8.06 ± 0.28
9,ATATAATTATAAAATAAACACACATATATATTTATA [CACACA_site8039],7.7 ± 0.43
10,TAATGTTACACAAACTTTTCATTCTTTTTAATAAAT [TGCATGCA_negctrl_site331],7.53 ± 0.59
11,ATATATATATATATATGTACATAGAGAAGTATCTTT [XGTACX_site4737],9.44 ± 0.69
12,TTATTTATTTATAATTGTACATTGCAAATGAATTTA [XGTACX_site4083],7.69 ± 0.52
13,AACATTTTAAATTATACACACATTTTGAATATATAT [CACACA_site3470],7.78 ± 0.53
14,TATACACCCAGACACACACACACACCCAAAAAAAAA [CACACA_site497],8.51 ± 0.42
15,TGTTGTTGTAATTATTGTACGTTATGCGATTATTAT [XGTACX_site7005],7.91 ± 0.46
16,AAAAAAAAAAAAAAAAGTACTCTATAAGTAACATTT [XGTACX_site6973],8.52 ± 0.5
17,ATTTTTTTGTTATTGTTGAAAAGATGGTTCTTTTTT [CACACA_negctrl_site1346],7.56 ± 0.62
18,AATTTCTTATTTTGTACACACAATAAATATTCACAT [CACACA_site1612],8.09 ± 0.59
19,AAGTTAGGATAGATCCAATAATTTTTAGTTTCTCTT [GTGCAC_negctrl_site272],7.14 ± 0.71
20,ATGAACATATTTTTTTGTACTTATGAAAATATGTTA [XGTACX_site5996],7.62 ± 0.46
21,TAGTAGTTATCATTAACATGCAATAATATTATTTAA [TGCATGCA_site178],7.66 ± 0.55
22,AAAATAAATAAATACACACACACGAATATTTATATA [CACACA_site6892],7.7 ± 0.4

row,Sequence,gcPBM binding intensity (ln)
1,ATTATTTCAATTTTTTTTGTTTTTAAAAAAAAAAAT [CACACA_negctrl_site1387],7.63 ± 0.32
2,ATTATAAAAATATCGTGTACATATTTTTTAAAATAA [XGTACX_site5072],7.93 ± 0.3
3,AAAAAAAAAAAAAAAAGTACACATCATTTTATGAAA [XGTACX_site1402],8.83 ± 0.41
4,GAAAACAAAATGGTAACACACAAATGTAAATAGTAT [CACACA_site2113],7.97 ± 0.88
5,TATATATAGAAACACACACACATATATATATATTTT [CACACA_site2540],7.74 ± 0.46
6,TATATATTATAAAATAGTACACAGAATTTAAATATA [XGTACX_site100],7.86 ± 0.48
7,TCTTTTAAACAGTACACACACACATATATATATATA [CACACA_site924],9.57 ± 0.11
8,AATATTTTTTTATAAACACACATATAAATAAATATA [CACACA_site7622],7.66 ± 0.57
9,TTGTTGATTGTTATTTATCATTAGATGTAAAATATG [CACACA_negctrl_site927],7.55 ± 0.38
10,GGGCATATAATATAAAGTACAGGACTATAAAAATAT [XGTACX_site4481],7.93 ± 0.33
11,TATTATATGTATTGCACACCTTCAACAACTACTTCT [CACACA_site655],10.3 ± 0.41
12,ATATCTATAATAAACACACACATATACCTATAGGTA [CACACA_site7596],7.77 ± 0.65
13,ATTGTGCACTTATATGCACACATTTTAGTTTTTTTT [CACACA_site2028],11.4 ± 0.69
14,TTTATTTATCTGAACACATGCAGACAAATAACATAT [TGCATGCA_site929],7.75 ± 0.66
15,TATCACATATTATGATGTACAAGGATTCTGACTAAT [XGTACX_site1196],7.58 ± 0.38
16,CATAAACTTTATAACACACACTTATAAATATAAATA [CACACA_site6646],7.89 ± 0.35
17,ATTATATATAAACACACACACATGCATGCACATATA [CACACA_site4237],8.93 ± 0.59
18,GTTATAAAATATGGCACACAAAATGTAAGTAAATGA [CACACA_site1458],8.73 ± 0.18
19,ATATATTTTGTTATGGTGCGTAAGAAATATATTCTT [GTGCAC_site9825],10.3 ± 0.47
20,GATCTTTAAATTTATTGTACATAAATGTATATGTTA [XGTACX_site1107],7.81 ± 0.49
21,TTTTTTTATATTTTTAGTACACATTGGTATATATAT [XGTACX_site4114],8.49 ± 0.29
22,TATTTTTTTAAAAATACACACATAAAATCATGAAAA [CACACA_site1085],7.84 ± 0.61

# From the supplement of paper PMC11417369
